± gives the standard error. Variants at the floor of the assay are shown more often than the library holds them.
B1: glmS ribozyme (parent)
chain: AUAAAAGCGCCAGAACUACAGAAAUGUAGUUGACGAGGAGGAGGUUUAUCGAAUUUUCGGCGGAUGCCUCCAAA

How the values were obtained:
Settings in all cases: with glucosamine-6-phosphate
glucosamine-6-phosphate [1] = variants of: B1; experiment: self-cleavage kobs at 40 uM GlcN6P; higher = faster cleavage; RNA array
How it was run: (§1)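 Tiles bearing barcoded ribozyme variants, transcribed in situ by E. coli RNA polymerase on sequenced MiSeq chips, were imaged over ~14 h at 37 °C using a hybridised Cy3 probe. Glucosamine-6-phosphate was supplied at 40 μM to 10 mM in HEPES/KCl/Mg(OAc)2 buffer. kobs came from one- or two-exponential decay fits to normalised per-tile medians, and weighted Michaelis–Menten fits then provided kcat and KM.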

glucosamine-6-phosphate [2] = variants of: B1; experiment: self-cleavage kobs at 640 uM GlcN6P; higher = faster cleavage; RNA array
How it was run: as §1

glucosamine-6-phosphate [3] = variants of: B1; experiment: self-cleavage kobs at 160 uM GlcN6P; higher = faster cleavage; RNA array
How it was run: as §1

glucosamine-6-phosphate [4] = variants of: B1; experiment: self-cleavage kobs at 10000 uM GlcN6P; higher = faster cleavage; RNA array
How it was run: as §1

glucosamine-6-phosphate [5] = variants of: B1; experiment: self-cleavage kobs at 2500 uM GlcN6P; higher = faster cleavage; RNA array
How it was run: as §1

| Variant | self-cleavage kobs at 40 uM GlcN6P (glucosamine-6-phosphate [1]) [s⁻¹] | self-cleavage kobs at 640 uM GlcN6P (glucosamine-6-phosphate [2]) [s⁻¹] | self-cleavage kobs at 160 uM GlcN6P (glucosamine-6-phosphate [3]) [s⁻¹] | self-cleavage kobs at 10000 uM GlcN6P (glucosamine-6-phosphate [4]) [s⁻¹] | self-cleavage kobs at 2500 uM GlcN6P (glucosamine-6-phosphate [5]) [s⁻¹] |
| --- | --- | --- | --- | --- | --- |
| C8A A39C | < 1e-05 | < 1e-05 | < 1e-05 | < 1e-05 |  |
| C8A C10G A15U | < 1e-05 |  |  | < 1e-05 |  |
| C8A C11U | < 1e-05 | < 1e-05 |  |  | < 1e-05 |
| C8A G32A | < 1e-05 | < 1e-05 |  | < 1e-05 | < 1e-05 |
| C8A U30A G60U G66U | < 1e-05 |  |  |  |  |
| C8A U55G | < 1e-05 | < 1e-05 |  | < 1e-05 | < 1e-05 |
| C8G A12U | < 1e-05 | < 1e-05 | < 1e-05 | < 1e-05 | < 1e-05 |
| C8G A36U | < 1e-05 | < 1e-05 | < 1e-05 | < 1e-05 | < 1e-05 |
| C8G A42C | < 1e-05 | < 1e-05 | < 1e-05 | < 1e-05 | < 1e-05 |
| C8G A52U G63U A64G | < 1e-05 |  |  | < 1e-05 |  |
| C8G C10A | < 1e-05 | < 1e-05 | < 1e-05 | < 1e-05 | < 1e-05 |
| C8G G9C G29U A52G A64C | < 1e-05 |  |  | < 1e-05 |  |
| C8G G9C U55A | < 1e-05 | < 1e-05 |  | < 1e-05 | < 1e-05 |
| C8G G41C C70G | < 1e-05 | < 1e-05 | < 1e-05 | < 1e-05 |  |
| C8G G44U | < 1e-05 |  | < 1e-05 | < 1e-05 | < 1e-05 |
| C8U A33U G37A U46G | < 1e-05 |  |  |  |  |
| C8U A39C A53U U55A G59A U65C | < 1e-05 |  |  | < 1e-05 | < 1e-05 |
| C8U A64G | < 1e-05 | < 1e-05 | < 1e-05 |  | < 1e-05 |
| C8U C11U U57G C67G | 0.000617 ± 0.0003 | 7.99e-05 ± 3.8e-05 |  | 0.000608 ± 0.00023 |  |
| C8U G38C G43A G44C G63U | < 1e-05 |  |  |  |  |
| C8U G43C | < 1e-05 | < 1e-05 | < 1e-05 | < 1e-05 | < 1e-05 |
| C8U G51U | < 1e-05 | < 1e-05 | < 1e-05 |  | < 1e-05 |
| C8U G59U A64G | < 1e-05 |  |  | < 1e-05 |  |
| C8U U45A U54C U57G | < 1e-05 |  |  |  |  |

| Variant | self-cleavage kobs at 40 uM GlcN6P (glucosamine-6-phosphate [1]) [s⁻¹] | self-cleavage kobs at 640 uM GlcN6P (glucosamine-6-phosphate [2]) [s⁻¹] | self-cleavage kobs at 160 uM GlcN6P (glucosamine-6-phosphate [3]) [s⁻¹] | self-cleavage kobs at 10000 uM GlcN6P (glucosamine-6-phosphate [4]) [s⁻¹] | self-cleavage kobs at 2500 uM GlcN6P (glucosamine-6-phosphate [5]) [s⁻¹] |
| --- | --- | --- | --- | --- | --- |
| G9A A12C G43A G63U | < 1e-05 |  |  |  |  |
| G9A A12G G13U A15U C34U U55A C70U | < 1e-05 |  |  |  |  |
| G9A A14C G60A | < 1e-05 |  |  |  |  |
| G9A A36U G40A G60C | < 1e-05 |  |  | < 1e-05 |  |
| G9A G13A | < 1e-05 | < 1e-05 | < 1e-05 |  | < 1e-05 |
| G9A G32U A52U G66C | < 1e-05 |  |  |  |  |
| G9A U30G | < 1e-05 | < 1e-05 |  |  |  |
| G9A U54C | < 1e-05 | < 1e-05 | < 1e-05 |  |  |
| G9A U55C C71A | < 1e-05 |  |  |  |  |
| G9C A39G G44U | < 1e-05 |  |  |  | < 1e-05 |
| G9C C61A | < 1e-05 | < 1e-05 | < 1e-05 | < 1e-05 | < 1e-05 |
| G9C G32A | < 1e-05 |  | < 1e-05 | < 1e-05 | < 1e-05 |
| G9C G32C C34U G41C U47G A48G A64U | < 1e-05 |  |  | < 1e-05 |  |
| G9C G35C | < 1e-05 | < 1e-05 | < 1e-05 | < 1e-05 | < 1e-05 |
| G9C G37U G59C | < 1e-05 |  |  |  |  |
| G9C G51A A52U C70G | < 1e-05 | < 1e-05 |  |  |  |
| G9C U49A | < 1e-05 | < 1e-05 |  | < 1e-05 | < 1e-05 |
| G9C U49C A52U | < 1e-05 |  |  | < 1e-05 |  |
| G9C U54C | < 1e-05 | < 1e-05 | < 1e-05 | < 1e-05 |  |
| G9U A33U G38C G51A C67A | < 1e-05 |  |  |  |  |
| G9U A42G U47A | < 1e-05 | < 1e-05 |  |  | < 1e-05 |
| G9U C16U G43A G60U | < 1e-05 |  |  | < 1e-05 |  |
| G9U G35U | < 1e-05 | < 1e-05 | < 1e-05 | < 1e-05 | < 1e-05 |
| G9U G38C | < 1e-05 | < 1e-05 | < 1e-05 | < 1e-05 | < 1e-05 |

| Variant | self-cleavage kobs at 40 uM GlcN6P (glucosamine-6-phosphate [1]) [s⁻¹] | self-cleavage kobs at 640 uM GlcN6P (glucosamine-6-phosphate [2]) [s⁻¹] | self-cleavage kobs at 160 uM GlcN6P (glucosamine-6-phosphate [3]) [s⁻¹] | self-cleavage kobs at 10000 uM GlcN6P (glucosamine-6-phosphate [4]) [s⁻¹] | self-cleavage kobs at 2500 uM GlcN6P (glucosamine-6-phosphate [5]) [s⁻¹] |
| --- | --- | --- | --- | --- | --- |
| G9U U47G U54C | < 1e-05 |  |  | < 1e-05 |  |
| G9U U55G | < 1e-05 | < 1e-05 |  | < 1e-05 | < 1e-05 |
| G9U U65A | < 1e-05 | < 1e-05 |  | < 1e-05 | < 1e-05 |
| C10A C34G | < 1e-05 | < 1e-05 |  | < 1e-05 | < 1e-05 |
| C10A C50U G63A A64C | < 1e-05 | < 1e-05 |  |  |  |
| C10A C70G | 2.53e-05 ± 1e-05 | 0.000116 ± 1.8e-05 |  |  |  |
| C10A G29C U30C A39C | < 1e-05 |  |  | < 1e-05 |  |
| C10A G43C | < 1e-05 | < 1e-05 | < 1e-05 |  |  |
| C10A G44A | < 1e-05 | < 1e-05 |  | < 1e-05 |  |
| C10A U47C U54C G66U | < 1e-05 |  |  | < 1e-05 |  |
| C10G A14C C70U | < 1e-05 |  |  |  |  |
| C10G A14G G29U U30C A36C G43U | < 1e-05 | < 1e-05 |  |  |  |
| C10G C34A C61G | < 1e-05 |  |  |  |  |
| C10G G40U U55G | < 1e-05 |  |  | < 1e-05 | < 1e-05 |
| C10G G43A G62U | < 1e-05 | < 1e-05 |  |  |  |
| C10G G43C | < 1e-05 | < 1e-05 | < 1e-05 | < 1e-05 |  |
| C10G G62U C71G | < 1e-05 |  |  |  |  |
| C10G U45A | < 1e-05 | < 1e-05 |  |  |  |
| C10G U47C | < 1e-05 | < 1e-05 |  | < 1e-05 |  |
| C10G U69G | < 1e-05 | < 1e-05 |  | < 1e-05 | < 1e-05 |
| C10U A14C A36G G41A | < 1e-05 |  |  |  |  |
| C10U A14C U65C | < 1e-05 | < 1e-05 | < 1e-05 |  |  |
| C10U A14G G29U | < 1e-05 |  |  |  |  |
| C10U A15U G29A | < 1e-05 | < 1e-05 |  | < 1e-05 |  |

| Variant | self-cleavage kobs at 40 uM GlcN6P (glucosamine-6-phosphate [1]) [s⁻¹] | self-cleavage kobs at 640 uM GlcN6P (glucosamine-6-phosphate [2]) [s⁻¹] | self-cleavage kobs at 160 uM GlcN6P (glucosamine-6-phosphate [3]) [s⁻¹] | self-cleavage kobs at 10000 uM GlcN6P (glucosamine-6-phosphate [4]) [s⁻¹] | self-cleavage kobs at 2500 uM GlcN6P (glucosamine-6-phosphate [5]) [s⁻¹] |
| --- | --- | --- | --- | --- | --- |
| C10U A33C C58G | < 1e-05 |  |  |  |  |
| C10U A33U A52U | < 1e-05 | < 1e-05 |  | < 1e-05 |  |
| C10U A52C U57G | < 1e-05 | < 1e-05 |  | < 1e-05 | < 1e-05 |
| C10U A53U | < 1e-05 |  | < 1e-05 |  |  |
| C10U A53U G59C C68G | < 1e-05 |  |  |  |  |
| C10U C11G G43C G59A | < 1e-05 |  | < 1e-05 |  | < 1e-05 |
| C10U C11G G62U | < 1e-05 |  |  | < 1e-05 |  |
| C10U G13A C68A | < 1e-05 |  |  |  |  |
| C10U G29A A36G G66U C68U | < 1e-05 |  |  | < 1e-05 |  |
| C10U G40A G41A | < 1e-05 | < 1e-05 |  |  |  |
| C10U G41U U55G | < 1e-05 |  |  | < 1e-05 | < 1e-05 |
| C10U U49A | < 1e-05 | < 1e-05 |  | < 1e-05 | < 1e-05 |
| C11A A12G G32A G43U G66A C67U C68G | < 1e-05 |  |  | < 1e-05 |  |
| C11A A33U U45A | < 1e-05 |  |  |  |  |
| C11A A52U | < 1e-05 | < 1e-05 | < 1e-05 |  |  |
| C11A U49G C67G | 4.47e-05 ± 1.8e-05 |  |  |  |  |
| C11G A33G | < 1e-05 | < 1e-05 |  | < 1e-05 | < 1e-05 |
| C11G G32C G59U | < 1e-05 |  |  |  |  |
| C11G G37A U54A U56A C58A C61U | < 1e-05 |  |  | < 1e-05 |  |
| C11G G37C G40C U45A | < 1e-05 |  |  |  | < 1e-05 |
| C11G G40A C50G U55C C70U | < 1e-05 |  |  | < 1e-05 |  |
| C11G G44C C58A | < 1e-05 |  |  | < 1e-05 |  |
| C11U A64C | < 1e-05 |  |  | < 1e-05 |  |
| C11U G13A A33C A53U | < 1e-05 |  |  |  |  |

From the supplement of paper PMC7125110
